# The campaign covered roughly 230,000 compounds. About 1,500 (0.65%) were called active. This list was built around the results that the source calls inconclusive (neither active nor inactive); the mix of calls is not that of the screen. Calls come from the whole dose curve; as a rule, active = well fitted inhibition curve with a large enough effect; inconclusive = small, poorly fitted or top-dose-only effect; inactive = no such curve, though single readings can be large or run the other way. Potencies beside an inconclusive call are fits to weak or partial responses and may not hold up.
# Molecular target: Lethal(3)malignant brain tumor-like protein 1 (Homo sapiens) (UniProt Q9Y468)
# Assay: qHTS Assay for the Inhibitors of L3MBTL1; note: nearly all actives have a fitted effect of over 60% in size
# Conditions: AlphaScreen L3MBTL1–H3K9me1 peptide binding; series mostly up to 57.1 µM
# In short: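 Displacement of a biotinylated histone H3(1-15) peptide monomethylated at Lys9 (75 nM) from L3MBTL1 (50 nM) was measured by AlphaScreen after a 30 min room-temperature compound incubation; cefsulodin titration served as intraplate control.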
# Potency is the fitted concentration of half-maximal effect; tags give direction and shape of the fitted curve.
# Chain of UniProt Q9Y468 (Q9Y468 whole entry, looked up): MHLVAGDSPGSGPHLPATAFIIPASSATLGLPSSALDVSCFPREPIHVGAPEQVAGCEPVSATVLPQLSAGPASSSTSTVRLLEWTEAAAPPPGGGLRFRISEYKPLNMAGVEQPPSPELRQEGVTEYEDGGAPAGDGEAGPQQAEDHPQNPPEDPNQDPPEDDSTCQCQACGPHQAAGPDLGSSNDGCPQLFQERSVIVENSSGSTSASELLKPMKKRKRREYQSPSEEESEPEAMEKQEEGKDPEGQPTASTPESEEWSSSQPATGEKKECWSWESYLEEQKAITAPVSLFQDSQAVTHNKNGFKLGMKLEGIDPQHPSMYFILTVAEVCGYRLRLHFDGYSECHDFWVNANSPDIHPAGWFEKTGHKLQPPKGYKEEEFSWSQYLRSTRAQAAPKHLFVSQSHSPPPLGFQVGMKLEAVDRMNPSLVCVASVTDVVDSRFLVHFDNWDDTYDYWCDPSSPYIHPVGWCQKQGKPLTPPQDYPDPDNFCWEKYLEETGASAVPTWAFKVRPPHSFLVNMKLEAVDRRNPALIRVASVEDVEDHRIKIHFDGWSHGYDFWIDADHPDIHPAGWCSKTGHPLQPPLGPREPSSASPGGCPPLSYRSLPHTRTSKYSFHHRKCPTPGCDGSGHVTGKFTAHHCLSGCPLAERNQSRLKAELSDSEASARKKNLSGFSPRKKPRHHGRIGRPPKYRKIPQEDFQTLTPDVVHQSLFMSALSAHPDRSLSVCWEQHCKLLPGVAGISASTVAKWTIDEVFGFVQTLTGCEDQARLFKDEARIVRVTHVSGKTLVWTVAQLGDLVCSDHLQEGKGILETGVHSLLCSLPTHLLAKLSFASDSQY
row,Compound,Potency
1,O=C(c1ccc(-c2ccccc2)cc1)N1CCN(c2ccccn2)CC1,"inconclusive: 0.631 µM [inhibitor, full curve, poor fit]"
2,CCOC(=O)C1=C(N)OC2=C(C(=O)CCC2)C1c1ccco1 (stereo not drawn),"inconclusive: 17.8 µM [inhibitor, single point]"
3,COc1cc(C(=O)O)cc(OC)c1OCc1cc(C(=O)O)oc1C,"inconclusive: 35.5 µM [inhibitor, single point]"
4,Cc1c(N=N/C(C(=O)Nc2ccccc2)=C(/O)c2ccccc2)c(=O)n(-c2ccccc2)n1C,inactive
5,Cc1cc(N/N=C/c2ccc(N(C)C)cc2)nc(NCc2ccccc2)n1,"inconclusive: 3.55 µM [inhibitor, single point]"
6,O=C(Nc1ccc(Cl)cc1)c1cccc(N2C(=O)C3C4CCC(C4)C3C2=O)c1 (stereo not drawn),"inconclusive: 0.126 µM [inhibitor, full curve, poor fit]"
7,CCOc1cc(C(=S)N2CCOCC2)cc(Br)c1OS(=O)(=O)c1ccccc1,inactive
8,Cn1c(N)c(C(=O)COC(=O)CCC2CCCCC2)c(=O)n(C)c1=O,"inconclusive: 39.8 µM [inhibitor, partial curve, poor fit]"
9,N#CC1=C(N)Oc2c(ccc3cccnc23)C1c1cccnc1 (stereo not drawn),inactive
10,CCN(CC)C(=O)CSc1nc2ccc(NC(=O)CSc3nnc(N)s3)cc2s1,"inconclusive: 31.6 µM [inhibitor, single point]"
11,Clc1ccc(C(c2ccccc2)N2CCN(c3ccccn3)CC2)cc1 (stereo not drawn),inactive
12,Nc1ccccc1N=Nc1ccccc1N,active: 8.91 µM
13,CCOCCCNc1nc(C)nc2c1nnn2Cc1c(F)cccc1Cl,inactive
14,Cc1ccc(C(=O)N/C(=C\c2ccco2)C(=O)NCCCn2ccnc2)cc1,"inconclusive: 35.5 µM [inhibitor, single point]"
15,CCn1nnc(NC(=O)CSc2ccc(Cl)cc2)n1,"inconclusive: 28.2 µM [inhibitor, single point]"
16,Cc1ccc(S(=O)(=O)N2CCN(CC(=O)N/N=C/c3ccc(Br)s3)CC2)cc1,"inconclusive: 0.794 µM [inhibitor, single point]"
17,O=C(CSc1ccsc1[N+](=O)[O-])Nc1cccc(F)c1,active: 28.2 µM
18,COc1ccc(-n2c(Cc3cccn3C)nnc2SCC(=O)Nc2ccc(C)cc2C)cc1,"inconclusive: 35.5 µM [inhibitor, single point]"
19,Cn1cnc([N+](=O)[O-])c1SCC(O)CCl (stereo not drawn),inactive
20,COc1ccccc1/C=C/C=N/N1CCN(Cc2ccccc2)CC1,"inconclusive: 15.8 µM [inhibitor, partial curve]"
21,O=C(NCc1ccccc1)c1ccc2c(=O)n(CC3CCCO3)c(=S)[nH]c2c1 (stereo not drawn),inactive
22,Cn1c(=O)c2c(nc(NNC(=O)C(F)(F)F)n2C)n(C)c1=O,inactive
23,c1cc2c(cc1C1CCCN1)OCCCO2 (stereo not drawn),"inconclusive: 5.01 µM [inhibitor, single point]"
24,Cc1ccc(NC(=O)C(C)OC(=O)CCC2CCCCC2)cc1 (stereo not drawn),inactive
25,O=C(COc1coc(CN2CCN(Cc3ccccc3)CC2)cc1=O)Nc1ccccc1,"inconclusive: 31.6 µM [inhibitor, single point]"

row,Compound,Potency
1,Cc1ncc(N=Nc2ccccc2)c(-c2ccccc2)n1,"inconclusive: 35.5 µM [inhibitor, single point]"
2,CCOc1nc(C)cc(C)c1S(=O)(=O)c1ccc(Cl)cc1,"inconclusive: 39.8 µM [inhibitor, single point]"
3,CC1=NN(C(=O)c2ccc(Cl)cc2)C(O)(c2ccccc2)C1 (stereo not drawn),"inconclusive: 39.8 µM [inhibitor, single point]"
4,CCCS(=O)(=O)n1nc(-c2ccc(Br)cc2)cc1N,"inconclusive: 35.5 µM [inhibitor, single point]"
5,O=C1N/C(=N\c2ccccn2)SC1Cc1ccccc1Cl (stereo not drawn),"inconclusive: 8.91 µM [inhibitor, partial curve]"
6,Cc1ccc(N2CCN(c3ccc(C)cc3)C2c2ccncc2)cc1,"inconclusive: 28.2 µM [inhibitor, single point]"
7,O=C(NCc1ccc(F)cc1)c1cc(-c2cccs2)on1,inactive
8,O=C(CC1N=C2c3ccccc3N=C(SCc3ccc(Cl)cc3)N2C1=O)NCc1ccco1 (stereo not drawn),inactive
9,O=C(Nc1ccc(F)cc1)c1ccc(COc2ccccc2)cc1,inactive
10,Cc1[nH]c2ccc(F)cc2c1CCNC(=O)C1CCCCC1C(=O)OCC(F)(F)F (stereo not drawn),"inconclusive: 39.8 µM [inhibitor, single point]"
11,Cc1ncc(N=Nc2ccccc2Cl)c(-c2ccccc2)n1,"inconclusive: 31.6 µM [inhibitor, partial curve]"
12,O=C(N/N=C/c1ccc(O)c(O)c1)c1ccc(-n2cnnn2)cc1,"inconclusive: 25.1 µM [inhibitor, single point]"
13,CC(=O)c1sc(Nc2nc3cc4c(cc3s2)OCO4)nc1C,inactive
14,CCNC(=S)Nc1ccc(C)c(S(=O)(=O)Nc2ccccc2OC)c1,inactive
15,O=C(O)c1ccc2c3c(cccc13)C(=O)N(OS(=O)(=O)c1ccccc1)C2=O,"inconclusive: 17.8 µM [inhibitor, partial curve]"
16,CCN(CC)c1ccc(NC(=O)C2CC(=O)N(Cc3ccccc3)C2)cc1 (stereo not drawn),active: 31.6 µM
17,CCOc1ccc2c(c1)C(c1ccccc1)=NNC(c1ccccc1)=N2,"inconclusive: 3.98 µM [inhibitor, full curve, poor fit]"
18,CC(C)=CCC/C(C)=C/CNC(=O)C[C@H]1C[C@H](C(=O)N2CCOCC2)[C@@]2(C)c3[nH]c4cc(-c5ccco5)ccc4c3CCN2C1=O,"inconclusive: 28.2 µM [inhibitor, single point]"
19,CCCn1c(SCc2nc3sc(C)c(C)c3c(=O)[nH]2)nc2ccccc2c1=O,inactive
20,COc1ccc(NC(=O)CSc2ccc(C)cc2)cc1,inactive
21,Cc1ccsc1C(=O)OCC(=O)Nc1cccc(F)c1,"inconclusive: 39.8 µM [inhibitor, single point]"
22,O=C1/C(=C\c2cccs2)SC(=S)N1C1CCS(=O)(=O)C1 (stereo not drawn),"inconclusive: 28.2 µM [inhibitor, partial curve]"
23,Cc1ccc2c(CC(=O)OCc3cc(=O)n4c(n3)sc3ccccc34)coc2c1,"inconclusive: 31.6 µM [inhibitor, single point]"
24,CN=C(Nc1ccc(C(=O)OC)s1)c1ccc(Cl)cc1,"inconclusive: 0.316 µM [inhibitor, full curve, poor fit]"
25,C/C(=N\NC(=O)Cc1csc(N2CCOCC2)n1)c1ccc(Cl)c(Cl)c1,"inconclusive: 11.2 µM [inhibitor, partial curve, poor fit]"

row,Compound,Potency
1,O=C(NC1CCCN(Cc2ccc(Cl)cc2)C1)C1CCC1 (stereo not drawn),inactive
2,O=C1OC(/C=C/c2ccc(Cl)cc2)=NC/1=C/c1ccco1,inactive
3,CCc1oc(C(=O)OC)cc1CSC(=N)N,inactive
4,Oc1c(N=NC(=S)Nc2ccccc2F)c2ccccc2n1Cc1ccc(Cl)cc1,"inconclusive: 3.16 µM [inhibitor, single point]"
5,O=C(c1c(O)cc(O)cc1O)C1c2c(cc(O)c3c2O[C@H](c2ccc(O)cc2)[C@@H](O)C3)OC1c1ccc(O)cc1 (stereo partly drawn),"inconclusive: 28.2 µM [inhibitor, single point]"
6,Cc1nnc(-c2ccc(Cl)cc2)nc1NCCN(C)C,"inconclusive: 39.8 µM [inhibitor, single point]"
7,CCN(CC)NC(=O)Nc1ccccc1,"inconclusive: 7.08 µM [inhibitor, single point]"
8,O=C(/C=C\c1ccco1)NC(=S)Nc1ccccc1O,inactive
9,CCOc1ccc(NC(=S)N2CCN(C/C=C/c3ccccc3)CC2)cc1,"inconclusive: 31.6 µM [inhibitor, partial curve]"
10,O=C(CSc1nc(=O)n2cc(Cl)ccc2n1)Nc1ccc2c(c1)OCCO2,"inconclusive: 39.8 µM [inhibitor, single point]"
11,Cc1cc(C)c2ccc3c(C)c(C)nc3c2[nH]1,"inconclusive: 25.1 µM [inhibitor, partial curve, poor fit]"
12,COC(=O)CN1C(=S)N(C)C(=O)/C1=C/c1cccs1,inactive
13,C/C(=N\NC(=S)NCc1ccccc1)c1ccc2ccccc2c1,inactive
14,CC(C)c1nc(SCC(=O)Nc2cccc3ccccc23)n[nH]1,inactive
15,CN(C)c1nc(SCC(=O)Nc2ccccc2)nc(N2CCOCC2)n1,"inconclusive: 0.631 µM [inhibitor, full curve]"
16,COCc1ccc(C(=O)N2CCc3c([nH]c4ccccc34)C2c2ccccn2)s1 (stereo not drawn),"inconclusive: 14.1 µM [inhibitor, partial curve]"
17,COc1ccc(N2CCC(CNS(=O)(=O)c3cccc(C(F)(F)F)c3)C2)cc1 (stereo not drawn),"inconclusive: 28.2 µM [inhibitor, partial curve]"
18,Cc1ccc(NC(=O)NC2=NN(c3ccccc3)C(=O)/C2=C2/CCCN2C)cc1,"inconclusive: 11.2 µM [inhibitor, partial curve, poor fit]"
19,COc1ccc2c(c1)c(C(O)CN1CCC(Cc3ccccc3)CC1)c(C)n2C (stereo not drawn),"inconclusive: 39.8 µM [inhibitor, single point]"
20,Clc1cccc(CN2COc3c(cc(Cl)c4cccnc34)C2)c1,inactive
21,O=C(CN1CCN(S(=O)(=O)c2ccc3ccccc3c2)CC1)N1CCc2ccccc2C1,inactive
22,O=C(CSc1nc(=O)n2ccccc2n1)NCc1ccc2c(c1)OCO2,inactive
23,COc1ccc(/C=C/CN2CCC(CO)(Cc3ccccc3Cl)CC2)cc1,"inconclusive: 7.08 µM [inhibitor, single point]"

# Source: PubChem BioAssay AID485360 (National Center for Advancing Translational Sciences (NCATS), 2010)
